Source: patent US20240239854A1, “ANTIMICROBIAL PEPTIDES AND MODIFICATIONS THEREOF” (Donald Danforth Plant Science Center, priority 2022, published 2024)
Residues, ends and D or L forms follow the SMILES beside them.

Test system: B. cinerea
Test: In planta assay on detached Nicotiana benthamiana leaves, gray mold (Example 1)
Conditions: applied on detached Nicotiana benthamiana leaves

CC[C@H](C)[C@H](NC(=O)[C@H](CCCNC(=N)N)NC(=O)[C@@H](NC(=O)[C@H](CS)NC(=O)[C@H](Cc1ccccc1)NC(=O)[C@H](CS)NC(=O)[C@H](CCCNC(=N)N)NC(=O)[C@H](CCCNC(=N)N)NC(=O)[C@H](CCCNC(=N)N)NC(=O)[C@H](Cc1ccccc1)NC(=O)CNC(=O)[C@H](CCCCN)NC(=O)[C@H](CS)NC(=O)[C@H](CCCNC(=N)N)NC(=O)CNC(=O)CN)[C@@H](C)O)C(=O)N[C@@H](CS)C(N)=O [GMA4C_V1A] (H-GGRCKGFRRRCFCTRIC-NH2; N-terminus assumed)
Reduction of gray mold disease symptoms: more potent than GMA4C_AC or GMA4C_V2A

CC[C@H](C)[C@H](NC(=O)[C@H](CCCNC(=N)N)NC(=O)[C@@H](NC(=O)[C@@H](NC(=O)[C@H](Cc1ccccc1)NC(=O)[C@@H](NC(=O)[C@H](CCCNC(=N)N)NC(=O)[C@H](CCCNC(=N)N)NC(=O)[C@H](CCCNC(=N)N)NC(=O)[C@H](Cc1ccccc1)NC(=O)CNC(=O)[C@H](CCCNC(=N)N)NC(=O)[C@H](CS)NC(=O)[C@H](CCCNC(=N)N)NC(=O)CNC(=O)CN)C(C)C)C(C)C)[C@@H](C)O)C(=O)N[C@@H](CS)C(N)=O [GMA4C_V3A] (H-GGRCRGFRRRVFVTRIC-NH2; N-terminus assumed)
Reduction of gray mold disease symptoms: more potent than GMA4C_AC or GMA4C_V2A
